Assay results published in the antibiotic and cytotoxicity screens of Wong et al. (2023).
The other results are listed elsewhere or left out.

How the values were obtained:
[1] = tested on: HSkMC (human skeletal muscle cells); assay: cytotoxicity call (relative viability < 0.9); details: 10 µM
[2] = tested on: HepG2; assay: cytotoxicity call (relative viability < 0.9); details: 10 µM
[3] = tested on: S. aureus RN4220; assay: growth inhibition call (relative growth <= 0.2); details: 50 µM

CC(C)NC(=O)Nc1cccc2c1O[C@H](CN(C)Cc1ccc(-c3ccccc3)cc1)[C@H](C)CN([C@@H](C)CO)C2=O
inactive: cytotoxicity call [1] | cytotoxicity call [2] | growth inhibition call [3]

COCC(=O)N[C@H]1C=C[C@H](CC(=O)N2CCCCC2)O[C@@H]1CO
inactive: cytotoxicity call [1] | cytotoxicity call [2] | growth inhibition call [3]

C[C@@H]1CN([C@@H](C)CO)C(=O)c2cc(NC(=O)Nc3ccc(C(F)(F)F)cc3)ccc2O[C@H]1CN(C)C(=O)Nc1ccccc1
inactive: cytotoxicity call [1] | cytotoxicity call [2] | growth inhibition call [3]

NC1CCN(C(=O)N2CCCC2)CC1
inactive: cytotoxicity call [1] | cytotoxicity call [2] | growth inhibition call [3]

COc1ccc(C#Cc2cnc3c(c2)C(=O)N([C@H](C)CO)C[C@@H](C)[C@H](CN(C)CC2CCOCC2)O3)cc1
inactive: cytotoxicity call [1] | cytotoxicity call [2] | growth inhibition call [3]

C[C@@H]1CN([C@@H](C)CO)C(=O)c2cccc(NC(=O)CCCCCC(=O)Nc3ccccc3N)c2O[C@@H]1CN(C)C(=O)Nc1ccccc1
inactive: cytotoxicity call [1] | cytotoxicity call [2] | growth inhibition call [3]

COc1ccc(NC(=O)N(C)C[C@H]2Oc3ccc(NC(=O)Nc4cccc5ccccc45)cc3CC(=O)N([C@H](C)CO)C[C@@H]2C)cc1
inactive: cytotoxicity call [1] | cytotoxicity call [2] | growth inhibition call [3]

COc1ccc(S(=O)(=O)Nc2ccc3c(c2)CC(=O)N([C@@H](C)CO)C[C@@H](C)[C@H](CN(C)S(=O)(=O)c2c(C)noc2C)O3)cc1
inactive: cytotoxicity call [1] | cytotoxicity call [2] | growth inhibition call [3]

C[C@H](CO)N1C[C@H](C)[C@@H](CN(C)C)OCCCC[C@H](C)Oc2ccc(NS(=O)(=O)c3cn(C)cn3)cc2C1=O
inactive: cytotoxicity call [1] | cytotoxicity call [2] | growth inhibition call [3]

Nc1nonc1/C(=N/O)N1CCCCC1
inactive: cytotoxicity call [1] | cytotoxicity call [2] | growth inhibition call [3]
